Data taken from PubChem BioAssay AID652104 (National Center for Advancing Translational Sciences (NCATS), 2013).
Among all 410,000 compounds or so, about 7,200 (1.8%) were called active. This list was built around the results that the source calls inconclusive (neither active nor inactive); the mix of calls is not that of the screen. Calls follow the shape of the dose curve; as a rule, active = well fitted activation curve with a large enough effect; inconclusive = small, poorly fitted or top-dose-only effect, or another doubt; inactive = no such curve, though single readings can be large or run the other way. Potencies of inconclusive entries are left out as doubtful fits.

Experiment: qHTS of TDP-43 Inhibitors; also: nearly all actives have a fitted effect of over 50% in size; as to growth rescue (activation): % of control where 0% means no effect
Conditions: TDP-43 expressing yeast growth rescue, BacTiter-Glo, 24 h; growth rescue (activation): at 46.1 µM (top of the series) unless noted
How it was run: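 Galactose-induced TDP-43 yeast, OD600=0.02, compound pinned; 24 hr, 30 deg C; BacTiter-Glo luminescence for growth. Inhibitors of TDP-43 toxicity read as activators.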
Potency is read from the fitted curve at half-maximal effect; tags tell the direction and shape of the fitted curve.

| Structure (SMILES) | Potency | growth rescue (activation) |
| --- | --- | --- |
| CC(=NNC(=S)N1CC2CCC(CC2)C1)c1ccccn1 | active: 22.4 µM | – |
| COc1ccccc1CC(=O)Nc1cccc2c1CCCC2 | inconclusive [activator, single point] | – |
| COc1ccccc1NC(=O)c1csc2c1CCCC2 | inconclusive [activator, single point] | – |
| CC1(C)Cc2cccc(OCC(=O)N3CCN(c4cccc(Cl)c4)CC3)c2O1 | inconclusive [activator, partial curve] | – |
| COc1cc2c(cc1OC)C(c1ccccc1)N(C(=O)c1ccccc1)CC2 (stereo not drawn) | inconclusive [activator, single point] | – |
| c1ccc(COCCCn2cc(-c3ccccc3)nn2)cc1 | inconclusive [activator, partial curve] | – |
| CCn1c(CN2c3ccccc3Sc3ccccc32)n[nH]c1=S | – | inactive: -0.104% |
| CC(C)NC(=S)NC(=O)c1ccc(Cl)cc1Cl | inconclusive [activator, full curve] | – |
| Cc1cc(C)c(S(=O)(=O)Nc2nnc(CC(C)C)s2)c(C)c1 | inconclusive [activator, single point] | – |
| CC(=O)OC1[C@H](Oc2c(O)c(C)c3c4c2[C@@H](C)CC[C@@H]4[C@@H](C)C[C@@H]3C=C(C)C)OC[C@@H](O)[C@@H]1O (stereo partly drawn) | inconclusive [activator, single point] | – |
| COc1cc([C@H]2[C@@H]3CCCC[C@]3(O)CCN2CC(=O)Nc2ccc(C)cc2C)ccc1O | inconclusive [activator, partial curve] | – |
| Cc1c(NC(=O)c2ccc(OC(C)C)cc2)cccc1-c1nc2ncccc2o1 | inconclusive [activator, partial curve] | – |
| CCC(=O)N1c2ccc(S(=O)(=O)N3CCN(c4ccccc4)CC3)cc2CC1C (stereo not drawn) | inconclusive [activator, partial curve] | – |
| Cc1ccc(C(=O)NCCn2c(C)cc3ccccc32)cc1C | inconclusive [activator, partial curve] | – |
| COCCNC(=O)/C(C#N)=C/c1ccccc1Br | active: 22.4 µM | – |
| COc1ccccc1C(=O)N1CCN(C(=O)c2oc3ccc(C)cc3c2C)CC1 | inconclusive [activator, single point] | – |
| COC(=O)CCC(=O)N(C)CC1CCCN(CCc2cccc(C(F)(F)F)c2)C1 (stereo not drawn) | inconclusive [activator, full curve, poor fit] | – |
| COc1ccc(NC(=O)CSCC(=O)Nc2cc(Cl)ccc2N2CCCC2)cc1 | inconclusive [activator, partial curve] | – |
